# Measurements reported in the RNAGym collection of RNA variant scans (doi:10.1073/pnas.2313332121).
# Variants at the background level are over-represented here.
# B1: TPR 5TU (parent)
# chain: GGAUCUUCUCGAUCUAACAAAAAAGACAAAUCUGCCACAAAGCUUGAGAGCAUCUUCGGAUGCAGAGGCGGCAGCCUUCGGUGGCGCGAUAGCGCCAACGUUCUCAACUAUGACACGCAAAACGCGUGCUCCGUUGAAUGGAGUUUAUCAUG
# Variants of: B1
# Test: polymerase ribozyme fitness, log enrichment relative to wild type (log ratio); higher = more active; in vitro selection for triplet polymerase activity
# Summary of the method: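 Mutant libraries of each subunit of a heterodimeric triplet polymerase ribozyme were built by PCR and transcribed. Each library went through one round of in vitro selection in triplicate: annealing with biotinylated primer, partner subunit and triplets, frozen incubation at −7 °C, gel excision of extended constructs, streptavidin-bead capture and RT-PCR. Input and output libraries were Illumina-sequenced; only genotypes with ≥10 input reads and ≥1 read per output were kept. Fitness is log2(genotype enrichment/wild-type enrichment), using inverse-variance-weighted replicate averages.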
row,Variant,polymerase ribozyme fitness (log ratio)
1,G48A C63U C76A A138G,≤ -4.2
2,G48U C87G A98U,≤ -4.2
3,A49C A64C G71A C87U U148A,≤ -4.2
4,A49C A121C G133A,≤ -4.2
5,A49U C131A U135G G143A,≤ -4.2
6,G48A A119U U148A,≤ -4.2
7,A47U C57U G58C A60U A64G C69G G74A C87A U139C,≤ -4.2
8,A49U G94C G152C,≤ -4.2
9,A49C A52G U55A C57U C75A U77A C87U G94U G117A A122G U148A,≤ -4.2
10,G50C C51A G74U C85U G126A,≤ -4.2
11,A49G C75G U77A U82C C93G C125U U134C U146C A147U,≤ -4.2
12,G48A A49C A66C G70A C116A A122U G133A,≤ -4.2
13,G50C A64U G100U U111C G136C,≤ -4.2
14,G50A G128C,≤ -4.2
15,G48C G86U C93U U151C,≤ -4.2
16,A49C G68A U102G A107G,≤ -4.2
17,G48C U61A G62A A91C U139A,≤ -4.2
18,G48A G83C,-1.78
19,G50A G86A C132U G143C C149G,≤ -4.2
20,G50A C87G G124A A142U C149A,≤ -4.2
21,G50A G62C G67C G68A C132U,≤ -4.2

row,Variant,polymerase ribozyme fitness (log ratio)
1,G48C C85U G94U C96U U144C,-3.25
2,A47U G141A,-1.46
3,A47U C85A U139G,-1.24
4,A49G U61A G80C A98G G141A,≤ -4.2
5,G50C C51A G74A C87A,≤ -4.2
6,A49G G92C A115U,-3.24
7,G48U C85U G140U,≤ -4.2
8,A49U A60U G67A C87G A147U,≤ -4.2
9,G48C G68C C76A C93A U104A,≤ -4.2
10,A49C C51U G74U C93A A97G C103A,≤ -4.2
11,G50A C57A G67C C85G G88A A138U,≤ -4.2
12,A49C A60G G68U C72U C123G G124A G143C,≤ -4.2
13,G48A G58C A73G U77G C96U G140U,≤ -4.2
14,A49C A52C U56C C87G C95U A98G A107C A119G,-4.17
15,A47U U53A,-1.33
16,G48A C54U C57A C76U A98G C99G C131G A138C,≤ -4.2
17,G48A G59C C63U G86C,-3.98
18,A49C G143A,-4.14
19,A49G C51G C85G C95G C108U,≤ -4.2
20,A49G U55A A73G,-3.1
21,G50A A107U,-4.13

row,Variant,polymerase ribozyme fitness (log ratio)
1,G48C U55A A73G C103A C132A U139C,≤ -4.2
2,G50A C54A A89C C93A U101G A107G G126U A137U U148A,≤ -4.2
3,A49C U55A G59A C87G C96U,≤ -4.2
4,A49C G50C C76U A91U A97U U111C G143C A150U,≤ -4.2
5,A49C C75U C76A U77G G81U C87U C93U G94A C131G U134G,≤ -4.2
6,A49U G65A G80C,≤ -4.2
7,A49G G59U C93A C125G G136C U144A,≤ -4.2
8,G50A C54A G59A C72U C103A A119U,≤ -4.2
9,A49C G59A C87U U148A C149U,≤ -4.2
10,G48U G70A G92C G140A,≤ -4.2
11,G50A C69U A121U A137C,≤ -4.2
12,A49C C72U G88U A91C C105G U146G,≤ -4.2
13,A49C C54U U55A U78G G84U,≤ -4.2
14,A49C G68C C87A A91C U101C G133A,≤ -4.2
15,G48A G80C C93G U101A U109G A137C,≤ -4.2
16,G48U A52G C54A A64G C85U,≤ -4.2
17,G48C A49G G80A G84U C85U,≤ -4.2
18,G50C C51U C72A A121U,≤ -4.2
19,G50A U56G G80C C85A C114A G133A G140U,≤ -4.2
20,G50A G92A A106G,≤ -4.2
21,A47U G59C G92U C103A A120U,≤ -4.2

row,Variant,polymerase ribozyme fitness (log ratio)
1,G50C A52G G74A C96G,≤ -4.2
2,G50A U53A U55A U56A G67C G92A G126U,≤ -4.2
3,G50A G83A A97G,-0.838
4,A49G C63A G92C C99A A106C C108U A113U C118A,≤ -4.2
5,A49C A52C C57A A91U C96G G112A G117U G143C A150G,≤ -4.2
6,G48C C57G G67U C85A C93A C96U G140C,≤ -4.2
7,G50C A52C G58C,≤ -4.2
8,A49C G50U C57U C72U G86A G141C,≤ -4.2
9,A49C A91U G100U,≤ -4.2
10,G50A C51U G74C U82C G140A U146G,≤ -4.2
11,A49G G84U U145G,-3.09
12,A49C G58A A98U C114G,≤ -4.2
13,G48A C57U U111C,≤ -4.2
14,A49G G59C C87G C125U A138C,≤ -4.2
15,A47U G48C C51U C75G U90G C99A,≤ -4.2
16,A49C G50C U53A C79A A137U,≤ -4.2
17,A47U G62C G84U,-3.86
18,G48C G70A G88U C96G,≤ -4.2
19,A47U G126C,-0.0812
20,G48A C76G A107G,≤ -4.2
21,A49G U61A A64G C76A G141C,≤ -4.2
